Experimental data taken from patent US20200283537A1 (published 2020).

Columns and labels:
[1] = target: BaCa-KO-Fc (LALA)-S267E; assay: ELISA
[2] = target: BaCa-WT-Fc (LL)-S267E; assay: ELISA

B1: rDR5 (Fc fusion)
chain: ITQQDLAPQQRAAPQQKRSSPSEGLCPPGHHISEDGRDCISCKYGQDYSTHWNDLLFCLRCTRCDSGEVELSPCTTTRNTVCQCEEGTFREEDSPEMCRKCRTGCPRGMVKVGDCTPWSDIECVHKESGGGSGGS[human IgG4 Fc with S228P R409K (EU numbers) omitted here]
Kd [1]: 1.69 nM
Kd [2]: 1.39 nM

B2: rFOLR1 (Fc fusion)
chain: RIAWARTELLNVCMNAKHHKEKPGPEDKLHEQCRPWRKNACCSTNTSQEAHKDVSYLYRFNWNHCGEMAPACKRHFIQDTCLYECSPNLGPWIQQVDQSWRKERVLNVPLCKEDCEQWWEDCRTSYTCKSNWHKGWNWTSGFNKCAVGAACQPFHFYFPTPTVLCNEIWTHSYKVSNYSRGSGRCIQMWFDPAQGNPNEEVARFYAAAGGSGGS[human IgG4 Fc with S228P R409K (EU numbers) omitted here]
Kd [1]: 0.801 nM
Kd [2]: 0.596 nM
